{"source": "paper PMC4336329", "about": "(PLoS ONE, 2015)", "note": "The campaign covered roughly 310,000 compounds. About 14,000 (4.5%) showed an effect of 50% or more. The effect is printed as a negative number. This is one part of the list.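 Note: peak tail current of the secondary pulse compared with the same well before compound.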", "data": [{"biological_target": "human ether-à-go-go-related gene (hERG) potassium channel (human, UniProt Q12809)", "sequence (Q12809 whole entry, looked up)": "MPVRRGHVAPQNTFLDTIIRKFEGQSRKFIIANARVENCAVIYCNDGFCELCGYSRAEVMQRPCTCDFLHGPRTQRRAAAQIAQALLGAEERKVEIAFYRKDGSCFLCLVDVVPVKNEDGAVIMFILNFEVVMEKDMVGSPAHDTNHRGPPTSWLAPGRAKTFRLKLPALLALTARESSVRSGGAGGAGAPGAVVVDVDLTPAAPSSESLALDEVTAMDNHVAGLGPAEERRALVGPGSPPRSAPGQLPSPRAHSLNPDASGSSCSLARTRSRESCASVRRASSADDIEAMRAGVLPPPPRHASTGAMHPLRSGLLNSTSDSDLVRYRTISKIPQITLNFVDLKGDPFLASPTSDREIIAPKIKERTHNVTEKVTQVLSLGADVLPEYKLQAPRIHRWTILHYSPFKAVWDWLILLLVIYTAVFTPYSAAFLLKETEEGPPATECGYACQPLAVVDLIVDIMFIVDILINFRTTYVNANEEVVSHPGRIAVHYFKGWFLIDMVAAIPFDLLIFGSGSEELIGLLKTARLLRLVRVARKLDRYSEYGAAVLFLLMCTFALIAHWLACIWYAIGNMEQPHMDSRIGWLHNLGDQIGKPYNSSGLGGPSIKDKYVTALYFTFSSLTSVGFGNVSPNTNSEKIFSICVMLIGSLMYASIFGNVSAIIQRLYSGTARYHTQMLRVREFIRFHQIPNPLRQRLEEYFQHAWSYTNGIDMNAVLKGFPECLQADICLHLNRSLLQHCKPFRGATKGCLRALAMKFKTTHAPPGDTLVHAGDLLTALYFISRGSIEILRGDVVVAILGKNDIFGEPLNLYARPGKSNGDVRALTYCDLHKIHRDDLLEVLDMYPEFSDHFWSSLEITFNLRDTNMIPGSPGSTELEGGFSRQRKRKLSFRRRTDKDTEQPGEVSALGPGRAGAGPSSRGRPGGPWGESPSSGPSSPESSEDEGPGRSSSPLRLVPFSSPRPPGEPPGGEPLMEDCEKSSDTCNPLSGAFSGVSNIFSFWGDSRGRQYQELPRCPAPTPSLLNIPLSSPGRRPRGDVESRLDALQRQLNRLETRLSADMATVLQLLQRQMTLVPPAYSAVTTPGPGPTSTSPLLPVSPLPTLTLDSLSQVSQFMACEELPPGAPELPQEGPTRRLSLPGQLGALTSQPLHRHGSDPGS", "experiment": "primary screen, population patch clamp on CHO cells stably expressing hERG", "units": {"hERG current change (%, negative = inhibition) at 10uM": "%"}, "values": [{"smiles": "CCOC(=O)CCC(=O)NCc1ccc2[nH]c(C)cc2c1", "hERG current change (%, negative = inhibition) at 10uM": 4.85}, {"smiles": "CCOc1ccc(N/C(N)=N/c2nc(C)cc(C)n2)cc1", "hERG current change (%, negative = inhibition) at 10uM": -46.5}, {"smiles": "O=S(=O)(c1ccc(F)cc1)N1CCC2(CC1)OCCN2S(=O)(=O)c1cccs1", "hERG current change (%, negative = inhibition) at 10uM": -10.9}, {"smiles": "COC(=O)C1=C(c2ccc3ccccc3c2)C[C@@H]2CC[C@H]1N2C(=O)NCc1ccc(F)cc1", "hERG current change (%, negative = inhibition) at 10uM": 13.3}, {"smiles": "CC[C@H](C)[C@H](NC(=O)OCc1ccccc1)C(=O)Nc1ccc(NC(C)=O)cc1", "hERG current change (%, negative = inhibition) at 10uM": 20.4}, {"smiles": "O=C(O)c1ccccc1N/N=C/c1cc(Br)cc(Br)c1O", "hERG current change (%, negative = inhibition) at 10uM": 11.6}, {"smiles": "O=C(c1cccc([N+](=O)[O-])c1)N1CCN(c2ccc(Cl)cc2)CC1", "hERG current change (%, negative = inhibition) at 10uM": -41.1}, {"smiles": "O=C(COC(=O)CCC(=O)c1ccc(F)cc1)Nc1nnc(-c2ccccc2)o1", "hERG current change (%, negative = inhibition) at 10uM": -17.4}, {"smiles": "COC(=O)C(CC(=O)Nc1cc(C)ccc1C)Nc1ccccc1OC", "note": "(centres unmarked)", "hERG current change (%, negative = inhibition) at 10uM": -4.65}, {"smiles": "COc1cccc(NC(=O)CN(C)C(C)C(=O)Nc2ccc(S(=O)(=O)N3CCOCC3)cc2)c1", "note": "(centres unmarked)", "hERG current change (%, negative = inhibition) at 10uM": -15.1}, {"smiles": "COc1ccc(N2C(=O)NC(=O)/C(=C\\c3ccccc3[N+](=O)[O-])C2=O)cc1", "hERG current change (%, negative = inhibition) at 10uM": 22.4}, {"smiles": "Cc1ccc(C2(C)NC(=O)N(CC(=O)N3CCN(S(=O)(=O)c4cccs4)CC3)C2=O)cc1", "note": "(centres unmarked)", "hERG current change (%, negative = inhibition) at 10uM": -31.9}, {"smiles": "CCCOc1ccc(C2/C(=C(/O)c3ccccc3)C(=O)C(=O)N2CCCN(C)C)cc1OC", "note": "(centres unmarked)", "hERG current change (%, negative = inhibition) at 10uM": 5.35}, {"smiles": "CN(C)CCCNS(=O)(=O)c1ccc(N2CCC(c3ccc(Cl)cc3)=N2)cc1", "hERG current change (%, negative = inhibition) at 10uM": 0.0494}, {"smiles": "Cc1ccc2nc(N(CCCN(C)C)C(=O)c3sc4ccccc4c3Cl)sc2c1.Cl", "hERG current change (%, negative = inhibition) at 10uM": -29.9}, {"smiles": "Clc1cccc(Cl)c1/C=C/c1ccn[nH]1", "hERG current change (%, negative = inhibition) at 10uM": 20.2}, {"smiles": "Cc1cc(C)c2c3c(cn2n1)c(=O)n(C)c(=O)n3C", "hERG current change (%, negative = inhibition) at 10uM": 1.6}, {"smiles": "Fc1ccc2[nH]c3c(Cl)ncnc3c2c1", "hERG current change (%, negative = inhibition) at 10uM": 10.8}, {"smiles": "Cc1cccc(N=C2NC(=O)/C(=C\\c3cccs3)S2)c1", "hERG current change (%, negative = inhibition) at 10uM": 12.7}, {"smiles": "O=[N+]([O-])c1ccc(Cc2ccccn2)cc1", "hERG current change (%, negative = inhibition) at 10uM": -15.7}, {"smiles": "Cc1cc(Cl)c(S(=O)(=O)N2CCCCCC2)cc1OCC(N)=O", "hERG current change (%, negative = inhibition) at 10uM": -20.8}, {"smiles": "Cc1nnc(SCCn2c(N3CCCC(C)C3)nc3c2c(=O)n(C)c(=O)n3C)s1", "note": "(centres unmarked)", "hERG current change (%, negative = inhibition) at 10uM": -5.21}, {"smiles": "CCN1CCN(C(=O)c2ccc3c(c2)N(Cc2ccc(F)cc2)C(=O)c2ccccc2S3=O)CC1", "note": "(centres unmarked)", "hERG current change (%, negative = inhibition) at 10uM": -9.09}, {"smiles": "CCN(CC)S(=O)(=O)c1cccc2cc(C(=O)O)c(O)cc12", "hERG current change (%, negative = inhibition) at 10uM": -2.34}, {"smiles": "Cc1cc2cc(C)c(NCCNC(=O)c3ccccc3F)nc2cc1C", "hERG current change (%, negative = inhibition) at 10uM": -31.2}, {"smiles": "CC1c2[nH]c3ccccc3c2C[C@H]2C(=O)N(CCCO)CC(=O)N12", "note": "(some centres unmarked)", "hERG current change (%, negative = inhibition) at 10uM": 23}, {"smiles": "O=C(Nc1ccc(C(=O)O)cc1)Nc1cccc2ccccc12", "hERG current change (%, negative = inhibition) at 10uM": 19.5}, {"smiles": "OCCN1CN=C(Nc2nc3ccccc3s2)NC1", "hERG current change (%, negative = inhibition) at 10uM": -6.04}, {"smiles": "COc1ccccc1N1CCN(C(=O)Nc2cccc(C)c2)CC1", "hERG current change (%, negative = inhibition) at 10uM": -3.99}, {"smiles": "COc1ccc(-c2csc(NC(=O)Cc3cc(OC)c(OC)c(OC)c3)n2)cc1OC", "hERG current change (%, negative = inhibition) at 10uM": -1.22}, {"smiles": "CCOC(=O)C(=O)Nc1nnc(C2CCCCC2)s1", "hERG current change (%, negative = inhibition) at 10uM": -5.64}, {"smiles": "O=C(Nc1nc2ccc(Cl)cc2s1)c1cccc(N2C(=O)CCC2=O)c1", "hERG current change (%, negative = inhibition) at 10uM": 9.49}, {"smiles": "COc1cccc(C2c3[nH]c4ccccc4c3C[C@H]3C(=O)N(c4ccccc4C(=O)NCCCN4CCOCC4)C(=O)N23)c1", "note": "(some centres unmarked)", "hERG current change (%, negative = inhibition) at 10uM": -19.9}, {"smiles": "CN(C)S(=O)(=O)c1ccc2c(c1)nc(CCC(=O)Nc1ccc(N3CCOCC3)cc1)n2C", "hERG current change (%, negative = inhibition) at 10uM": 15.6}, {"smiles": "Cc1cc(C)c(C)c(S(=O)(=O)NC2CCCCC2)c1C", "hERG current change (%, negative = inhibition) at 10uM": 15}, {"smiles": "COc1ccc(CNC(=O)C2Cc3cc(S(=O)(=O)N4CCCC4)ccc3N2C(C)=O)c(OC)c1", "note": "(centres unmarked)", "hERG current change (%, negative = inhibition) at 10uM": 13.1}, {"smiles": "CC(C)(C)C1CCC(OC(=O)CN2CCCCC2)CC1", "note": "(centres unmarked)", "hERG current change (%, negative = inhibition) at 10uM": 12.5}, {"smiles": "CC(C)c1nnc(SCC(=O)NCCC2=CCCCC2)n1N", "hERG current change (%, negative = inhibition) at 10uM": 2.43}, {"smiles": "Cc1ccc(S(=O)(=O)N2CCCC(c3nc4c(nnn4Cc4ccc5c(c4)OCCO5)c(=O)[nH]3)C2)cc1", "note": "(centres unmarked)", "hERG current change (%, negative = inhibition) at 10uM": 5.51}, {"smiles": "COc1ccc(C)cc1NC(=O)COC(=O)c1ccc2c(c1)OCCO2", "hERG current change (%, negative = inhibition) at 10uM": 5.45}, {"smiles": "CCOC(=O)C1=C(C)Nc2nnnn2C1c1ccccc1Cl", "note": "(centres unmarked)", "hERG current change (%, negative = inhibition) at 10uM": -7.31}, {"smiles": "CN(C)c1ccc(CNS(=O)(=O)c2ccc3c(c2)NC(=O)CS3)cc1", "hERG current change (%, negative = inhibition) at 10uM": -4.85}, {"smiles": "O=C1NCC(=O)N(Cc2ccccc2)/C1=C/c1ccccc1", "hERG current change (%, negative = inhibition) at 10uM": 7.4}, {"smiles": "Cc1nc2cc(C(F)(F)F)ccc2n1C1CCN(CC(=O)N2CCCC2)CC1", "hERG current change (%, negative = inhibition) at 10uM": -13.1}]}]}
